Here are results for 24 compounds from PubChem BioAssay AID463173 (ICCB-Longwood Screening Facility, Harvard Medical School, 2010).

In all, about 52,000 compounds went through this assay and about 1,700 (3.3%) were called active. Rule as the data show it: active = survival mostly below about 52% (no sharp cut-off); inactive = mostly above about 56%. This is one part of the list.

This experiment has as its system Wild type. Nature of the experiment: growth inhibition of S. aureus wild type versus tarO mutant, primary screen, teichoic acid synthesis inhibitors, RN4220, OD600 (AID 463173). Conditions: S. aureus RN4220 wild type/DeltatarO growth, OD600, 18 h, hits give low values, screened at 18.75 µg/mL (by protocol).
As to `Cc1ccccc1CSc1nc2c(sc3ccccc32)c(=O)n1CCCOC(C)C`, the survival was inactive: 134%. The result for `COc1cc(OC)cc(N2CCN(S(=O)(=O)c3ccc(-n4cnnn4)cc3)CC2)c1` reads inactive: 93%; that for `O=C1CC(c2ccccc2)Cc2[nH]c(=O)c(-c3nc(-c4ccc(Cl)cc4)cs3)cc21` (centres undefined), inactive: 61%; that for `CCN1CCN(C(c2cccc(F)c2)c2c(O)cc(C)n(Cc3ccco3)c2=O)CC1` (centres undefined), inactive: 71%. On to `Cc1nn(C)c2c1c(-c1ccccc1)cc(=O)n2C(C)C(=O)NCc1ccc(F)cc1` (centres undefined), for which the survival was inactive: 71%.

As to `Cc1ccc(-n2nnnc2CNC(=O)C(C)C)cc1C`, the survival was inactive: 79%. Then `CCSc1nnc2c(n1)OC(CC)N(C(C)=O)c1ccccc1-2` (centres undefined), with inactive: 131%; and `O=C(NCCC1=CCCCC1)c1ccc2c(c1)ncn2-c1ccc(F)c(F)c1`, with inactive: 87%.

With `CC(=O)c1ccc(N2CCN(S(=O)(=O)c3ccc4[nH]c5c(c4c3)CCCC5)CC2)cc1`, the survival is inactive: 57%. The result for `O=c1c2c(-c3ccc(Cl)cc3)ccnc2[nH]n1-c1ccccc1` reads inactive: 85%; that for `CC(=O)Nc1cccc(NC(=O)c2c(-c3ccccc3)c(-c3ccccc3)nn(C)c2=O)c1`, inactive: 85%; that for `CCc1ccccc1NS(=O)(=O)c1ccc2c(c1)OCC(C(=O)N1CCCC1)O2` (centres undefined), inactive: 71%. Then `CCCN(CCC)C(=O)CSc1nc2sc3c(c2c(=O)n1-c1ccccc1)CCN(C(C)=O)C3`, with inactive: 154%.

Take `CCOCc1cc(CN2CCN(c3cccc(Cl)c3)CC2)c(O)c2ncccc12`: the survival was inactive: 67%.

For the compound `CCc1ccc(Nc2nc(N)nc(CSc3nc4ccccc4s3)n2)cc1`, the survival is inactive: 34%. Then `CCN(Cc1ccccc1)Cc1c(O)ccc2c(=O)c(-c3ccccc3Cl)c(C(F)(F)F)oc12`, with inactive: 95%; and `O=C(NCc1cccc(F)c1)c1cccc(NC(=O)c2nsc3ccccc23)c1`, with inactive: 87%.

For `COc1ccc(OC)c(C2c3c(oc4ccc(C)cc4c3=O)C(=O)N2CCCN(C)C)c1` (centres undefined), the survival was inactive: 89%.

On to `CCC(CC)C(=O)Nc1cccc(-c2nc3ccccc3s2)c1`, for which the survival is inactive: 73%. Regarding `CCOc1ccc(-c2nnc(SCC(=O)NCc3ccc(C)cc3)nc2-c2ccc(OCC)cc2)cc1`, the survival was inactive: 124%. Then `Fc1ccc(-c2cn3cc(Cc4ccc(Cl)cc4)sc3n2)cc1`, with inactive: 75%; and `CCc1ccc(-n2nc3ccc(NC(=O)c4ccc(C#N)cc4F)cc3n2)cc1`, with inactive: 73%. As for `COc1cccc(CNC(=O)C2CCN(c3nnc(-n4c(C)ccc4C)s3)CC2)c1`, the survival was inactive: 77%. Then `Cc1cccc(-n2ncc3c(NC4CCCC4)ncnc32)c1`, with inactive: 69%.
